In ChEMBL document CHEMBL4888484, “Replenishing the malaria drug discovery pipeline: Screening and hit evaluation of the MMV Hit Generation Library 1 (HGL1) against asexual blood stage Plasmodium falciparum ,using a nano luciferase reporter read-out” (2022):
Out of some 150,000 compounds screened, about 540 (0.36%) showed an effect of 50% or more. The list shows a part of the results.

These compounds were tested on Plasmodium falciparum (assay: Primary screen in NF54 nanoGlo assay, in single point, at 2uM, 72h; a lower Z score goes with more inhibition). Settings: timepoint 72 hour.
Format: functional, Erythrocyte

Row | SMILES | % Inhibition | Z score
1 | Cc1nn(C)c(Oc2cccnc2)c1CN1CCN(c2cc(F)ccc2F)CC1 | -9% | 1.58
2 | CC1CC(CNC(=O)NC(C)C2CC2)CCO1 (stereo unspecified) | 18% | -2.25
3 | CC(C)C[C@H]1CN(C)CCN1C(=O)c1coc(-c2ccccn2)n1 | -3% | 0.3
4 | O=C(Nc1ccc(Cl)cc1)Nc1ccc(-c2nc(-c3ccccc3)co2)cc1 | -9% | 1.25
5 | CCN(Cc1cnn(C)c1)C(=O)c1cc(COc2cc(C)c(Cl)c(C)c2)on1 | 2% | -0.27
6 | CN(C(=O)c1cccnc1OCc1ccccc1F)c1nncs1 | 2% | -0.4
7 | CC(C)(C)n1nnc(C(=O)N2CCC[C@H]2C(F)(F)F)n1 | -1% | 0.13
8 | C=CCNC(=O)[C@@H]1C(=O)Nc2nc3ccccc3nc21 | -7% | 1.05
9 | CN(C)c1ncccc1CNC[C@H]1CCOC1 | -18% | 2.55
10 | CCNC(=O)[C@H](C)NC(=O)c1cccc(F)c1 | -2% | 0.19
11 | COC[C@H](C)N1CCN(S(C)(=O)=O)CC1 | -2% | 0.27
12 | O=C(c1cn(C2CN(C(=O)[C@@H]3CCCO3)C2)nn1)N1CCOCC1 | -9% | 1.65
13 | COc1ccccc1CN(C(=O)NCCc1nc(C2CC2)no1)C1CC1 | -14% | 2.01
14 | Cc1cccc(NC(=O)c2nn(-c3ccc(F)cc3)c3ccccc3c2=O)c1 | -1% | 0.12
15 | CCNC(=O)N(CCN1CCOCC1)Cc1cc(Cl)ccc1OCc1nc(CO)cs1 | 14% | -1.37
16 | O=C(c1cc(C(=O)N2CC[C@@H]3CCC[C@@H]32)c[nH]1)N1CCCC1 | -21% | 2.15
17 | CCn1cc(CNC(=O)Nc2c(C)c(-c3ccccc3)nn2C)c(C)n1 | -7% | 1.25
18 | O=C(Cc1cccs1)N[C@H]1CCCCNC1=O | 2% | -0.44
19 | O=C(NC1CC1)N1CCN(c2ncc(Br)cn2)CC1 | -14% | 1.25
20 | c1ccc(CN2CCOCCOCCOCCOCCOCCOCC2)cc1 | -9% | 1.27
21 | CCN(CCC(=O)NC(N)=O)Cc1cc(Br)ccc1F | -6% | 0.89

Row | SMILES | % Inhibition | Z score
22 | CC1=CCCC(C)C1CN1CC(C(N)=O)O[C@H](C)C1 (stereo partly specified) | 3% | -0.44
23 | Cc1cc(C)nc(NS(=O)(=O)c2ccc(NC(=O)c3cc(-c4ccc(C)c(F)c4)on3)cc2)n1 | -7% | 1.32
24 | COC(=O)c1ccc(NC(=O)[C@@H]2CCCCN2)cc1 | -8% | 0.72
25 | CCC1(CC)C(NC(=O)C2(C#N)C(C#N)C2(C)C)CC1OC (stereo unspecified) | -11% | 1.65
26 | Cc1cc(C(=O)NC2CCS(=O)(=O)CC2)nc(C)n1 | 0% | 0.09
27 | Cc1cc(S(=O)(=O)NCCc2ccsc2)sc1Cl | -13% | 1.24
28 | O=S(=O)(c1cccc(-c2nnco2)c1)N1CCCC1 | -14% | 1.55
29 | Cc1nc(C(=O)NC(C)(C)c2cccc(Cl)c2F)c(=O)[nH]c1C | -14% | 2.99
30 | Cc1ccc(-n2nc(C)c3sc(N4CCC[C@H](C(=O)NCc5c[nH]nc5C)C4)nc32)cc1 | -13% | 1.67
31 | COc1cccc(-c2nc3ccc(-c4ccccc4)cn3c2CCC(=O)Nc2ccccc2)c1 | -5% | 0.45
32 | CC1CCN(C(=O)c2snc(-c3cccc(F)c3)c2N)CC1 | -15% | 1.78
33 | COc1ccc(-c2nc(Cn3nc(C)c4c(C)onc4c3=O)c(C)o2)cc1OC | -11% | 1.06
34 | Cc1ccc(OC2CCCN(C(=O)C3CC=CCC3)C2)nn1 (stereo unspecified) | -10% | 1.7
35 | O=C(c1ccc2ccccc2c1)N(Cc1ccco1)C1CC1 | -7% | 0.76
36 | Cc1ccncc1N1CCN(C(=O)c2cc[nH]c(=O)c2)CC1 | -12% | 1.98
37 | C[C@H]1CS(=O)(=O)C[C@H]1NC(=O)c1cc(F)cc2[nH]nnc12 | -7% | 1.23
38 | CNC(=O)[C@@H]1C[C@H](Oc2ccccc2)CN1C1CCN(C(=O)c2cnn(C)c2)CC1 | -5% | 0.61
39 | COc1ccc(CCNC(=O)N2C(=O)c3ccccc3C2=O)cc1OC | 1% | -0.13
40 | CCOc1ccccc1CNC(=O)c1nc(C2CCC2)oc1C | -1% | 0.09
41 | Cc1cc(C(=O)N2CC[C@@H]3OCc4cccc(c4)Oc4cccc(c4)CCC(=O)N(C)CC(=O)N[C@@H]3C2)nn1C | 0% | -0.05
42 | Cc1ncn(C[C@H](O)COCc2ccccc2)c(=O)c1C | -4% | 0.53

Row | SMILES | % Inhibition | Z score
43 | c1cc(OC23CCCN(CC2)C3)cc(-c2nnco2)c1 (stereo unspecified) | -6% | 0.77
44 | C[C@H]1CCc2[nH]c3ccc(C(=O)N4CCC(C(=O)Nc5ccc6c(c5)OCO6)CC4)cc3c2C1 | -5% | 0.98
45 | CC(=O)N1CCN(C(=O)CCc2c(-c3ccc(Cl)cc3)nc3ccc(-c4cccc(C(F)(F)F)c4)cn23)CC1 | -14% | 1.68
46 | CC(C)NC(=O)NC1C2C3CCC(C3)C12 (stereo unspecified) | -3% | 0.57
47 | O=C(c1conc1C1CC1)N1CCCC2(CCCC2)C1 | 1% | -0.17
48 | CCS(=O)(=O)Nc1cc(C(=O)NCCc2cnccn2)c2c(c1)nc(-c1ccccc1)n2C | 8% | -1.16
49 | Cc1ccc(CC(=O)N2CCc3[nH]nc(C(=O)NCCCc4ccccc4)c3C2)cc1 | -9% | 1.41
50 | CCN(Cc1noc(C2CCC2)n1)C(=O)[C@@H](c1cccnc1)N1CCCC1 | -6% | 0.7
51 | CCc1cccc(C)c1NC(=O)[C@H]1CCCN(S(=O)(=O)c2ccc3ccccc3c2)C1 | -5% | 0.82
52 | CCc1nc(CC(=O)N(CC#N)C2CC2)cs1 | -6% | 0.83
53 | CCc1cc(-c2nc(CCOC)nn2-c2ccc3nc(C)sc3c2)on1 | -6% | 1.05
54 | Cc1ccnc2nc(C(=O)N(CC3CC3)CC(F)(F)F)nn12 | 37% | -1.11
55 | Cc1cc(OC[C@@H](O)CNC(C)(C)CC(C)(C)C)cc(C)c1Cl | 51% | -6.83
56 | O=c1cc(N[C@@H](c2cccc(C(F)(F)F)c2)C2CC2)nc2ccccn12 | 17% | -2.15
57 | Cc1cc(CNC2CC(C)(c3ccccc3)C2)on1 (stereo unspecified) | -12% | 1.65
58 | COC(=O)[C@@H]1Cc2nc[nH]c2CN1Cc1cnc(-c2ccccc2C)s1 | 0% | 0.03
59 | CC(C)c1nn(C)cc1C(=O)NC[C@]1(O)CCCC1(C)C | 34% | -3.88
60 | CCCNC(=O)c1n[nH]c2c1CCc1cc(OC)ccc1-2 | -10% | 1.74
61 | Cc1cc(C(=O)N2CC3(CCC3)[C@H]2c2cccnc2)ns1 | -4% | 0.69
62 | COc1ccc(CNCc2cc(F)ccc2C)cc1OC[C@@H](O)CN1CCCCC1 | 9% | -1.81
63 | COc1ccc(C(=O)N2CCCCCCNC(=O)[C@@H]3CCC[C@@H]32)cn1 | -5% | 0.62

Row | SMILES | % Inhibition | Z score
64 | O=S(=O)(NCc1ccccc1)Nc1ccc(-c2cn[nH]c2)cc1 | -2% | 0.32
65 | COC(=O)C[C@H](c1cc(OC)c2c(c1)OCCO2)c1c(O)n[nH]c1Cc1ccc(OC)cc1 | -9% | 1.14
66 | O=c1c(C(F)(F)F)cccn1Cc1ccc2ccccc2n1 | -7% | 0.8
67 | COc1ccc(C2(C)NC(=O)N(CC(=O)N(CC(C)C)C3CCS(=O)(=O)C3)C2=O)cc1OC (stereo unspecified) | -11% | 1.12
68 | CC(C)S(=O)(=O)NCCOc1ccc(C(C)(C)C)cc1 | 1% | -0.05
69 | O=C(Nc1ncccc1O)c1ccc2[nH]cnc2c1 | -14% | 2.69
70 | COCCN1CCN(CC(=O)N2CCC[C@H]2c2ccsc2)CC1 | -1% | 0.13
71 | Nc1c2c(-c3ccc(F)cc3)nc(N3CCc4ccccc4C3)nc2nn1-c1ccccc1 | 6% | -1.03
72 | O=C(c1ccccc1C(F)(F)F)N1CC(Oc2cccnc2)C1 | -10% | 1.9
73 | c1ccc(-c2noc(-c3cc4n(n3)C[C@@H](c3ccccc3)OC4)n2)cc1 | -17% | 1.95
74 | NC(=O)CC[C@H]1NC(=O)[C@H](c2ccccc2)NC1=O | -11% | 1.31
75 | CCCCCc1nnc(NC(=O)N2CCN(C(=O)c3nc[nH]n3)CC2)s1 | -3% | 0.44
76 | O=C(NC[C@H]1CCCO1)[C@H]1OCC[C@H]1c1ccccc1 | -8% | 1.12
77 | CC(C)(C)[C@H]1CCc2c(sc(NC(=O)c3cc(-c4ccccc4)nc4ccccc34)c2C#N)C1 | 13% | -1.58
78 | Cc1nc(N2CCOCC2)cc(N2CCN(C(=O)c3cccc(F)c3)CC2)n1 | -2% | 0.26
79 | CN1C(=O)NC2(CCN(C(=O)Nc3cccc(OC(F)F)c3)CC2)C1=O | 3% | -0.48
80 | COc1cc(OC)cc(C(=O)Nn2cc(C(=O)Nc3cnc4ccccc4c3)c3ccccc3c2=O)c1 | -3% | 0.63
81 | CCC(=O)N(Cc1ccc(F)cc1)Cc1c(-c2cccc(C)c2)noc1N1CCOCC1 | -17% | 1.62
82 | CC1C(C(F)(F)F)CCCN1C(=O)c1ccc2nncn2c1 (stereo unspecified) | -4% | 0.53
83 | Cc1cc(C)c2[nH]c(C(=O)N3CCC[C@H]3CN3CCCC3)c(C)c2c1 | 0% | 0.01
